Test results as given in the supplement of paper PMC12067230.
The data scatter; read single values as rough.

test: amyloid nucleation score relative to library mode (yeast Sup35 reporter selection) (log enrichment difference); higher = more amyloid nucleation; sequences are the first 22 residues of the Bri2 peptide extended by up to 12 random residues; conditions: random library (experiment): 1;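 active = nucleation score significantly above 0 at FDR 0.05; inactive = not significantly above 0 or absent from output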
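Note: [psi-pin-] Saccharomyces cerevisiae expressing SupN fusions, induced by 100 µM Cu2SO4, selected 7 d at 30 °C without adenine and uracil, scored by deep sequencing of output versus input.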

Sequence | amyloid nucleation score
EASNCFAIRHFENKFAVETLICKWSGKHVWGRSG | inactive
EASNCFAIRHFENKFAVETLICKYEYFYEEPVLL | inactive
EASNCFAIRHFENKFAVETLICKYGRTELLLEWT | inactive
EASNCFAIRHFENKFAVETLICKYGSLEGCEPEM | inactive
EASNCFAIRHFENKFAVETLICKYLD | inactive
EASNCFAIRHFENKFAVETLICKYLNNTVFVPWR | inactive
EASNCFAIRHFENKFAVETLICKYMGLKSTMRFL | inactive
EASNCFAIRHFENKFAVETLICKYMW | inactive
EASNCFAIRHFENKFAVETLICKYRCCGDAARHP | 3.91
EASNCFAIRHFENKFAVETLICKYVVGSVLVRGV | inactive
EASNCFAIRHFENKFAVETLICLAALRRCIVEGK | inactive
EASNCFAIRHFENKFAVETLICLACSNEGLWTAV | 7.83
EASNCFAIRHFENKFAVETLICLAEGIGCVRILL | 0.00985
EASNCFAIRHFENKFAVETLICLAERTRSLAPRD | 3.45
EASNCFAIRHFENKFAVETLICLAFEETARDVWP | inactive
EASNCFAIRHFENKFAVETLICLAFRWPAKLLLI | inactive
EASNCFAIRHFENKFAVETLICLAFWSLLVDASD | inactive
EASNCFAIRHFENKFAVETLICLAGENGQSAMGG | inactive
EASNCFAIRHFENKFAVETLICLAGGVPGSLPSV | inactive
EASNCFAIRHFENKFAVETLICLAKLYAGGDVRK | inactive

Sequence | amyloid nucleation score
EASNCFAIRHFENKFAVETLICLAKPSLWHVRFV | inactive
EASNCFAIRHFENKFAVETLICLALCDGNQSKTG | 5.22
EASNCFAIRHFENKFAVETLICLALPERWSGCEC | 7.7
EASNCFAIRHFENKFAVETLICLALWGWKGSRQA | inactive
EASNCFAIRHFENKFAVETLICLAMLIGWVSCYR | inactive
EASNCFAIRHFENKFAVETLICLAMTCRPGAMSM | inactive
EASNCFAIRHFENKFAVETLICLANMICT | inactive
EASNCFAIRHFENKFAVETLICLAPGASCTEWG | 6.16
EASNCFAIRHFENKFAVETLICLARETRLLGTGG | inactive
EASNCFAIRHFENKFAVETLICLASGGGWLAPRT | inactive
EASNCFAIRHFENKFAVETLICLASYGIRKSEIL | inactive
EASNCFAIRHFENKFAVETLICLATWGWRGARRR | inactive
EASNCFAIRHFENKFAVETLICLAVLKSWNPK | inactive
EASNCFAIRHFENKFAVETLICLAVVW | 6.62
EASNCFAIRHFENKFAVETLICLAWRSGYRWVEE | 0.664
EASNCFAIRHFENKFAVETLICLAYWEHECSAEW | 0.0198
EASNCFAIRHFENKFAVETLICLCAAEAASPPDW | inactive
EASNCFAIRHFENKFAVETLICLCADKVVWTYWA | inactive
EASNCFAIRHFENKFAVETLICLCAGSRRRRSVG | 6.12
EASNCFAIRHFENKFAVETLICLCAMGWQLRRAP | -0.732

Sequence | amyloid nucleation score
EASNCFAIRHFENKFAVETLICLCASCRTMCRGE | 0
EASNCFAIRHFENKFAVETLICLCAV | 0.565
EASNCFAIRHFENKFAVETLICLCCAVCRIGRGE | 3.81
EASNCFAIRHFENKFAVETLICLCCCDCWRSRPF | 8.43
EASNCFAIRHFENKFAVETLICLCCQARSEAKDY | 9.67
EASNCFAIRHFENKFAVETLICLCCRTS | 6.66
EASNCFAIRHFENKFAVETLICLCCVETS | 6.43
EASNCFAIRHFENKFAVETLICLCDQAHQRPSA | 8.25
EASNCFAIRHFENKFAVETLICLCDVKESHVLQR | 6.64
EASNCFAIRHFENKFAVETLICLCECHVASGLPG | 8.08
EASNCFAIRHFENKFAVETLICLCEGWYHWADDG | inactive
EASNCFAIRHFENKFAVETLICLCFSKPWRKGVR | 2.67
EASNCFAIRHFENKFAVETLICLCGLGLAPWGSQ | 5.89
EASNCFAIRHFENKFAVETLICLCGWRWHTQVPY | inactive
EASNCFAIRHFENKFAVETLICLCHRGDSVLMRY | inactive
EASNCFAIRHFENKFAVETLICLCHWKLLIVNGV | inactive
EASNCFAIRHFENKFAVETLICLCHWRNWCMVVV | inactive
EASNCFAIRHFENKFAVETLICLCIPYGARSSIL | 7.78
EASNCFAIRHFENKFAVETLICLCIQVWKCRLRQ | inactive
